These results are taken from PMC10423209.

The chains behind the UniProt entries cited, without tags or fusion partners. Where a name states a change or a piece, a line headed by the entry shows the natural chain unless it says otherwise.
UniProt Q15599: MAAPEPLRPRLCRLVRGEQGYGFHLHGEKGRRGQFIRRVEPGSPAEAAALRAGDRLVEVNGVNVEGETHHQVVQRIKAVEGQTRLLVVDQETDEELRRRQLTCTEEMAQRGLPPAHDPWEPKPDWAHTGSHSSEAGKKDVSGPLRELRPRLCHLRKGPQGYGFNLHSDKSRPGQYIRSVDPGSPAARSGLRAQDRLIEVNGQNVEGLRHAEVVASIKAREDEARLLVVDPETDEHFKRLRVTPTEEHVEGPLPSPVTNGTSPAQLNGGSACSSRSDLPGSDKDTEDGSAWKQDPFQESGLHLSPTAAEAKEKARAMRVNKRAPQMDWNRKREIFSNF

For assay [1], the target named is T1, Flag-SLC26A3 (wild type) (human) (UniProt P40879).
T1 sequence: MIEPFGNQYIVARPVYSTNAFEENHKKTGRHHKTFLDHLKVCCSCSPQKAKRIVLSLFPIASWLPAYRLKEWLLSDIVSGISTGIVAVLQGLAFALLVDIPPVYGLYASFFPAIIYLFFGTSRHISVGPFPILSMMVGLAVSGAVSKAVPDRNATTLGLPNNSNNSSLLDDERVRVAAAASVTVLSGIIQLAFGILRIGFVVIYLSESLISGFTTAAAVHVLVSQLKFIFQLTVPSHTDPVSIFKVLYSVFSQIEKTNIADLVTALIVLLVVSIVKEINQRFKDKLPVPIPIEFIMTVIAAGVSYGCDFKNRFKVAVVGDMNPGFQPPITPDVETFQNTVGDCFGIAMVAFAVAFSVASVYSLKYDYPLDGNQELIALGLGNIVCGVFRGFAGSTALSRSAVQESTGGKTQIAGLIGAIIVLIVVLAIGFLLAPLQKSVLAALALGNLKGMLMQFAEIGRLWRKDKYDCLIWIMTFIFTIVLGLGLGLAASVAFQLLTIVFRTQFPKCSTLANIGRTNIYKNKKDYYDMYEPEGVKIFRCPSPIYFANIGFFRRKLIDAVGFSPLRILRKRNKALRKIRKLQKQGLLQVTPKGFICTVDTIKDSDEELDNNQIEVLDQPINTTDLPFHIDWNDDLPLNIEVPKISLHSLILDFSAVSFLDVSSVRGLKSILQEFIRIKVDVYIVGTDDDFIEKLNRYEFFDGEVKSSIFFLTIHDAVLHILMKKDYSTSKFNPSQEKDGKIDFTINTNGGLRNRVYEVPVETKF
As to the kind of experiment: co-IP; HCT116, Caco2 and HEK293T cells; SLC26A3 with exogenous or endogenous NHERF2 (Fig. S4A-C).

Assay [2] deals with T2, endogenous SLC26A3 (human (endogenous in HCT116 and Caco2)) (UniProt P40879).
T2 sequence: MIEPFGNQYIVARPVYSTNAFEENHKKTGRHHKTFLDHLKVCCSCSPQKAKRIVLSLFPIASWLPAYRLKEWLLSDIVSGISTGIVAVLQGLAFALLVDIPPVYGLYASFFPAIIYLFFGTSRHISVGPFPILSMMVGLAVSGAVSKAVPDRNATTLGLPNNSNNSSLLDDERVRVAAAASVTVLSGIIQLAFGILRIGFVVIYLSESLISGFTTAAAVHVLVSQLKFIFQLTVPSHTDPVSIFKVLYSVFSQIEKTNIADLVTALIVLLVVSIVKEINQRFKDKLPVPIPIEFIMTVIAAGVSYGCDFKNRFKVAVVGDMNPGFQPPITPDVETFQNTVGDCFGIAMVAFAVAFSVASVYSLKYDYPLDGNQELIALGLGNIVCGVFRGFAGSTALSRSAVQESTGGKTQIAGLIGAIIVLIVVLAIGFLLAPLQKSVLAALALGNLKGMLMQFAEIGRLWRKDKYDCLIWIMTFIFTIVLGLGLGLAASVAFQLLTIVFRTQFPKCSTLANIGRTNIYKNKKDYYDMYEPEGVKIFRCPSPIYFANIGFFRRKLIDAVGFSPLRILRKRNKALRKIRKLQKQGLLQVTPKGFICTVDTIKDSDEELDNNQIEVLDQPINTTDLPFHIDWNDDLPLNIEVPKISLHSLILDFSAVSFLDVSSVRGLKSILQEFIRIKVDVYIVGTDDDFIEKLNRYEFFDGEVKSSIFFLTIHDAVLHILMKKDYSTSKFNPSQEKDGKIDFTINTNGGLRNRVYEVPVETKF
As to the kind of experiment: co-IP; endogenous proteins in HCT116 and Caco2 cells; SLC26A3 antibody (5 μg/mL, Santa Cruz) to IP SLC26A3.

For assay [3], the target named is T1, Flag-SLC26A3 (wild type) (human). Description: co-IP; HEK293T (for the two fragments also HCT116) co-transfected with Flag-SLC26A3 and Myc-NHERF2 constructs for 48 h; Flag-tagged and Myc-tagged anti-beads.
The target of assay [4] is T3, Flag-SLC26A3-C terminal fragment (human) (UniProt P40879).
T3 sequence: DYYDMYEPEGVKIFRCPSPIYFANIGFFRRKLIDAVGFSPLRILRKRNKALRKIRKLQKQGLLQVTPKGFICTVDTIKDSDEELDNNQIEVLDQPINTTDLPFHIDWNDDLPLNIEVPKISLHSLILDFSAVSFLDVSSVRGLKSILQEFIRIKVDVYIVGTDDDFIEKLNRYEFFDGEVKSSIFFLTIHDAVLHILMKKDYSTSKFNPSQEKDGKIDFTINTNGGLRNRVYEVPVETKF
The assay is described as above.

In assay [5] the target is T4, Flag-SLC26A3 N-terminal domain fragment (human) (UniProt P40879).
T4 sequence: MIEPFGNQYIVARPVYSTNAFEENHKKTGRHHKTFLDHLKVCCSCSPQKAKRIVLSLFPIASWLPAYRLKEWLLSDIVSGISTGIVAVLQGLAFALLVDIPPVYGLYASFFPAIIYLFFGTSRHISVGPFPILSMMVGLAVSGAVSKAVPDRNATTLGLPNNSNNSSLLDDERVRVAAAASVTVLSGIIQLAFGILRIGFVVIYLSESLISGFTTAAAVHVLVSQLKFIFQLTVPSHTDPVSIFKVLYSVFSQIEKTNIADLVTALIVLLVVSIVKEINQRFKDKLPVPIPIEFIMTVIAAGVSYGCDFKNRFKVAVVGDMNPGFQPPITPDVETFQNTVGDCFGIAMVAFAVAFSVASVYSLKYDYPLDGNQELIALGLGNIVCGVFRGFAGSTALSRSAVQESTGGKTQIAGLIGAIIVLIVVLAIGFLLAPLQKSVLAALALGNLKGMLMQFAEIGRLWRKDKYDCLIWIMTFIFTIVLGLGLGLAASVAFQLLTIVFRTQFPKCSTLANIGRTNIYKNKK
The assay is described as above.

Assay [6] deals with reconstituted GST fusion NHERF2 protein (human) (UniProt Q15599). Description: pull-down; GST pulldown with reconstituted GST-NHERF2 purified from a prokaryotic expression system and a Flag-tagged partner, in vitro; only the target purified.

No constants are given. Whether binding was seen depends on the method and setting. In cells and extracts the contact can be indirect. Some binding calls cover weakened binding; strength is not graded here. For part of these data: Sequences can lack the tags named with a protein.

As to “endogenous NHERF2 (from UniProt Q15599 1-337)”, the binding entry in assay [1] and in assay [2] was “binds” each time.

Turning to “Myc-NHERF2-N terminal fragment (from UniProt Q15599 1-228) (domain or fragment)”, the binding entry in assay [3] and in assay [4] was “binds” in each case.

For “Myc-NHERF2 (wild type) (from UniProt Q15599 1-337)”, the binding result in assay [1] is reported as “binds”; in assay [5], “no binding”; in assay [3], “binds”; in assay [4], “binds”.

B1: Flag-SLC26A3 (wild type) (protein, UniProt P40879 1-764)
chain: MIEPFGNQYIVARPVYSTNAFEENHKKTGRHHKTFLDHLKVCCSCSPQKAKRIVLSLFPIASWLPAYRLKEWLLSDIVSGISTGIVAVLQGLAFALLVDIPPVYGLYASFFPAIIYLFFGTSRHISVGPFPILSMMVGLAVSGAVSKAVPDRNATTLGLPNNSNNSSLLDDERVRVAAAASVTVLSGIIQLAFGILRIGFVVIYLSESLISGFTTAAAVHVLVSQLKFIFQLTVPSHTDPVSIFKVLYSVFSQIEKTNIADLVTALIVLLVVSIVKEINQRFKDKLPVPIPIEFIMTVIAAGVSYGCDFKNRFKVAVVGDMNPGFQPPITPDVETFQNTVGDCFGIAMVAFAVAFSVASVYSLKYDYPLDGNQELIALGLGNIVCGVFRGFAGSTALSRSAVQESTGGKTQIAGLIGAIIVLIVVLAIGFLLAPLQKSVLAALALGNLKGMLMQFAEIGRLWRKDKYDCLIWIMTFIFTIVLGLGLGLAASVAFQLLTIVFRTQFPKCSTLANIGRTNIYKNKKDYYDMYEPEGVKIFRCPSPIYFANIGFFRRKLIDAVGFSPLRILRKRNKALRKIRKLQKQGLLQVTPKGFICTVDTIKDSDEELDNNQIEVLDQPINTTDLPFHIDWNDDLPLNIEVPKISLHSLILDFSAVSFLDVSSVRGLKSILQEFIRIKVDVYIVGTDDDFIEKLNRYEFFDGEVKSSIFFLTIHDAVLHILMKKDYSTSKFNPSQEKDGKIDFTINTNGGLRNRVYEVPVETKF
For the molecule B1, in assay [6], the binding entry is on record as “binds”.
